Measurements: the supplement of paper PMC4166925
± gives the standard deviation of the averaged measurements. Over roughly 33,000 sequences, “E-score (dimensionless, -0.5 to 0.5)” has its median near -0.046; the highest 2% begin near 0.36. This is one part of the list.

test system: T1, SpTbr T-box DNA-binding domain (GST fusion); assay: PBM E-score of 8-mer (E-score (dimensionless, -0.5 to 0.5)); Tbr is Tbrain of the sea star Patiria miniata (Pm) or the sea urchin Strongylocentrotus purpuratus (Sp); higher = stronger binding preference; most listed sequences are background and not binding sites; conditions: the construct has about 5 more residues each side
T1 sequence: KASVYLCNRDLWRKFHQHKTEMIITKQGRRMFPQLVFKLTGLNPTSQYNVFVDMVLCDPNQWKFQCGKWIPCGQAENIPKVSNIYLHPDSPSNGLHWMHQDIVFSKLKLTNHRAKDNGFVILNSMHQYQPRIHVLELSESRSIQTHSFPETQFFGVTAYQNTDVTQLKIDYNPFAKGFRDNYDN
Experimental: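 Universal protein-binding microarray (Agilent AMADID 016060, 60-bp probes with a 35-bp variable region) incubated with 200 nM GST-fused Strongylocentrotus purpuratus Tbr T-box DNA-binding domain (residues 362-554) in PBS pH 7.5. Scored for every ungapped 8-mer (given with its reverse complement) as E-score (range -0.5 to 0.5; >0.45 counts as bound) and Z-score of median probe intensity. Two replicate arrays (datasets 1 and 2).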
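Also: protein at 200 nM in PBS on universal double-stranded arrays.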

Row | Sequence | PBM E-score of 8-mer
1 | GTTACTGA | 0.00366 ± 0.032
2 | AGAACACG | 0.157 ± 0.045
3 | AACGCGTA | 0.182 ± 0.057
4 | AGTTTGTG | 0.0608 ± 0.0061
5 | CTCATGAA | -0.133 ± 0.02
6 | ATAAACAA | -0.0981 ± 0.098
7 | CAGGGGCA | -0.308 ± 0.062
8 | CTCCTTCA | -0.0611 ± 0.0027
9 | AGGGATAT | -0.283 ± 0.013
10 | GTCAAACA | 0.0138 ± 0.011
11 | CCCATGGC | -0.0153 ± 0.051
12 | AATTTGCA | 0.143 ± 0.086
13 | GCGTAACA | 0.11 ± 0.0016
14 | CCGTATCC | -0.137 ± 0.066
15 | CATGTGCC | 0.163 ± 0.027
16 | ATCCACGG | -0.19 ± 0.082
17 | GTCCCGTA | -0.2504 ± 0.00072
18 | CACACTAC | 0.33 ± 0.027
19 | AATTTAAC | 0.0224 ± 0.15
20 | GTAGCATA | -0.143 ± 0.069
21 | TTAAAAAA | -0.215 ± 0.056
22 | CGAGCGAG | 0.0516 ± 0.075
23 | GTAAGGAA | -0.00673 ± 0.089
24 | ACCCCGTG | 0.191 ± 0.028
25 | CGTAATAC | -0.211 ± 0.081

Row | Sequence | PBM E-score of 8-mer
26 | CCGCTGGA | -0.0646 ± 0.073
27 | ATTATTCG | -0.0594 ± 0.0069
28 | ACCTGCAT | 0.0429 ± 0.011
29 | CTAATAAG | -0.0157 ± 0.0038
30 | ATCCTCAT | -0.251 ± 0.0058
31 | AGGCAGTC | -0.189 ± 0.051
32 | GGTCCGCA | 0.0726 ± 0.011
33 | CCTTCTCC | -0.101 ± 0.032
34 | CCAACGTC | -0.115 ± 0.02
35 | CTCAATTA | -0.0839 ± 0.0076
36 | CGACACGA | 0.174 ± 0.041
37 | AACGAAGC | -0.113 ± 0.068
38 | AAACCTGT | 0.0331 ± 0.12
39 | ACTAGCAT | 0.1 ± 0.046
40 | ACATATTC | 0.203 ± 0.049
41 | CAGACGGA | -0.0782 ± 0.055
42 | CGCATACC | -0.116 ± 0.071
43 | AAGGCATG | -0.132 ± 0.037
44 | AGGCGTAA | 0.255 ± 0.051
45 | AAAGTTTC | -0.076 ± 0.025
46 | GAGTCGCA | 0.25 ± 0.013
47 | CAGGTGAG | 0.399 ± 0.0058
48 | GGCAATGA | -0.0971 ± 0.061
49 | CACGCTGG | 0.0357 ± 0.05
50 | CAAGTACA | 0.0305 ± 0.045

Row | Sequence | PBM E-score of 8-mer
51 | CTGACTTC | -0.186 ± 0.11
52 | GGCCCCAC | 0.00311 ± 0.024
53 | AGCAACCG | -0.0904 ± 0.042
54 | CATCAGGG | 0.0143 ± 0.018
55 | AACGGGCT | -0.188 ± 0.022
56 | GGTGATTA | 0.1427 ± 0.0012
57 | ACCCTCCA | 0.123 ± 0.024
58 | AATCGGCC | -0.2327 ± 0.00095
59 | CCGATCCA | -0.143 ± 0.036
60 | AACTTGCG | 0.198 ± 0.0091
61 | ATCAGACA | -0.13 ± 0.0058
62 | CTAGTTAC | -0.0796 ± 0.0019
63 | AAGGATTA | -0.152 ± 0.047
64 | GTACATTA | -0.263 ± 0.006
65 | AGGTTGAC | 0.2511 ± 0.00029
66 | AGAGATTA | -0.211 ± 0.006
67 | ACCCGACG | 0.146 ± 0.078
68 | CATAGGAG | -0.118 ± 0.044
69 | ACTAACCA | 0.0896 ± 0.03
70 | GCGCCTAA | 0.184 ± 0.0058
71 | CACCGAAA | -0.171 ± 0.028
72 | CTCACAGC | 0.276 ± 0.0082
73 | ACCAATTG | -0.198 ± 0.016
74 | ATCTGCGG | -0.169 ± 0.013
75 | AAATCCTA | -0.335 ± 0.053

Row | Sequence | PBM E-score of 8-mer
76 | AGAACCGG | -0.158 ± 0.029
77 | ACGCCTCC | 0.298 ± 0.015
78 | ATCCCCAG | -0.165 ± 0.066
79 | AGGGGGAG | -0.292 ± 0.052
80 | AGCCGTTG | -0.0395 ± 0.08
81 | ACTGAAGA | -0.076 ± 0.068
82 | ATCTGAAT | -0.0553 ± 0.039
83 | CCCGGCGC | 0.0165 ± 0.028
84 | CCGTTGCC | 0.0616 ± 0.11
85 | GGCTGTCA | 0.172 ± 0.051
86 | ACAGGGAG | -0.0772 ± 0.034
87 | CCGAACTC | -0.0845 ± 0.065
88 | AGTGCAGG | -0.141 ± 0.013
89 | AGATACCA | -0.181 ± 0.026
90 | AGCGGAAA | 0.00331 ± 0.047
91 | ACTCTCAT | -0.0274 ± 0.081
92 | CCATGTAA | -0.0586 ± 0.041
93 | TAAGGCAA | -0.0556 ± 0.081
94 | ATACCTTA | 0.1245 ± 0.00057
95 | TCAGGCCA | -0.18 ± 0.024
96 | AGTGTTAG | 0.3895 ± 0.00056
97 | AGTCATTG | -0.0974 ± 0.017
98 | CCACGGCA | -0.0154 ± 0.051
99 | CTCCAGGC | -0.243 ± 0.015
100 | CTTGCGGC | -0.0404 ± 0.011

Row | Sequence | PBM E-score of 8-mer
101 | AATCCCGG | -0.1875 ± 0.00026
102 | GGCAGCAA | -0.00479 ± 0.086
103 | ACACCCTC | 0.402 ± 0.016
104 | ATGCGACA | 0.285 ± 0.0073
105 | GGCCGGCC | -0.0942 ± 0.044
106 | GCGAACGA | 0.283 ± 0.035
107 | CTTCTGCA | 0.00227 ± 0.035
108 | ACAATTTA | 0.00098 ± 0.082
109 | AACGCACG | 0.198 ± 0.073
110 | GAATCTGA | -0.0639 ± 0.06
111 | TCACACAA | 0.435 ± 0.0069
112 | AAGTTTGA | -0.0385 ± 0.021
113 | CACGAGCC | 0.161 ± 0.064
114 | ACGTCCGA | -0.188 ± 0.025
115 | AGTCTTAC | -0.143 ± 0.023
116 | AGCTTGCA | 0.00328 ± 0.058
117 | AAGATGTC | 0.0818 ± 0.083
118 | AATCGTGT | 0.18 ± 0.022
119 | CTTTCCAA | -0.339 ± 0.0049
120 | AAGCACAT | 0.0379 ± 0.027
121 | AACTCGGA | -0.136 ± 0.053
122 | AGACGTCA | -0.142 ± 0.046
123 | CATGGTGG | 0.129 ± 0.037
124 | CGTATTCC | -0.184 ± 0.12
125 | GCAGACCC | -0.0839 ± 0.024

Row | Sequence | PBM E-score of 8-mer
126 | CGGCAGCC | -0.00839 ± 0.048
127 | AATCTTAC | -0.173 ± 0.073
128 | AGTCCATA | -0.295 ± 0.063
129 | GATCCGAC | -0.046 ± 0.0029
130 | ACTCGGCT | -0.119 ± 0.011
131 | ATCCACCG | -0.256 ± 0.034
132 | CCCTTGAA | -0.329 ± 0.043
133 | ACCGCTAT | 0.039 ± 0.053
134 | TAAGGAGA | -0.251 ± 0.02
135 | ATTTGTGC | -0.113 ± 0.04
136 | CCACCTGG | 0.186 ± 0.029
137 | ATGTTTCG | -0.12 ± 0.029
138 | CGTGGTAA | 0.113 ± 0.033
139 | GCAATGCA | -0.052 ± 0.022
140 | AGAGCCTG | -0.165 ± 0.021
141 | ACTGGTTG | 0.0108 ± 0.018
142 | AGTCAGAC | -0.169 ± 0.017
143 | GAAAATGC | -0.24 ± 0.011
144 | AGCCGATC | -0.0387 ± 0.098
145 | CAGATACC | -0.21 ± 0.033
146 | CCTATCAG | -0.0272 ± 0.0079
147 | ATCAACGG | -0.0876 ± 0.0074
148 | TCTAAGAA | -0.228 ± 0.022
149 | ACAATTAC | 0.0614 ± 0.028
150 | AGACCGCG | 0.153 ± 0.032

Row | Sequence | PBM E-score of 8-mer
151 | ACTCGTAG | -0.0301 ± 0.03
152 | GCCAGCGC | 0.166 ± 0.055
153 | AACCCCTA | -0.196 ± 0.0075
154 | AGAGATAG | -0.0944 ± 0.028
155 | GCCGGGCA | -0.161 ± 0.044
156 | ATACTTGA | -0.107 ± 0.015
157 | ACTTTGGG | -0.136 ± 0.01
158 | AAGGTACG | -0.0434 ± 0.066
159 | CAGACTGC | 0.0403 ± 0.0089
160 | GTGAATGA | 0.177 ± 0.028
161 | CATACACA | 0.0213 ± 0.017
162 | AATTAAAA | -0.179 ± 0.0028
163 | ATTCCCGA | -0.13 ± 0.027
164 | ACGTTTAC | 0.0397 ± 0.056
165 | TGTTTTAA | -0.0468 ± 0.011
166 | CGAATGGA | -0.133 ± 0.037
167 | AATGAATG | -0.0644 ± 0.022
168 | AGACTCAA | -0.232 ± 0.065
169 | CTAAAACA | 0.103 ± 0.021
170 | CCTCGGTC | -0.0562 ± 0.039
171 | CATTAGAG | -0.108 ± 0.042
172 | CTTAGAAC | -0.0856 ± 0.044
